Results reported in the antibiotic and cytotoxicity screens of Wong et al. (2023).
This is one part of the list.

test system: HSkMC (human skeletal muscle cells); assay: cytotoxicity call (relative viability < 0.9); settings: 10 µM

| SMILES | cytotoxicity call |
| --- | --- |
| C[C@H](CO)N1C[C@H](C)[C@@H](CN(C)C(=O)NC2CCCCC2)OCCCC[C@H](C)Oc2ccc(NS(=O)(=O)c3ccccc3)cc2C1=O | inactive |
| C[C@@H]1CN([C@H](C)CO)C(=O)Cc2cc(NS(=O)(=O)c3ccc(F)cc3)ccc2O[C@H]1CN(C)C(=O)Nc1cccc2ccccc12 | inactive |
| C[C@@H]1CCCCO[C@H](CN(C)S(=O)(=O)c2ccc(Cl)cc2)[C@H](C)CN([C@@H](C)CO)C(=O)c2cc(NC(=O)C3CCCCC3)ccc2O1 | inactive |
| COc1ccc(S(=O)(=O)N[C@@H]2C=C[C@@H](CC(=O)N3CCC(Cc4ccccc4)CC3)O[C@H]2CO)cc1 | inactive |
| O=C(C[C@@H]1C[C@@H]2c3cc(NC(=O)C4CCOCC4)ccc3O[C@@H]2[C@@H](CO)O1)NCc1cc(F)ccc1F | inactive |
| N#Cc1cccc(NCCN2CCNC2=O)n1 | inactive |
| CC(/C=C/C(=O)NO)=C\c1ccccc1OCc1cn(CC[C@@H]2OC(=O)[C@H](Cc3ccccc3)N3CC4=C[C@@H](C5CC5)n5c(=O)n(C)c(=O)n5[C@H]4[C@H]23)nn1 | inactive |
| C[C@@H]1CN([C@H](C)CO)C(=O)CCCn2nncc2CO[C@@H]1CN(C)S(=O)(=O)c1ccc(-c2ccccc2)cc1 | inactive |
| Cc1ccc(S(=O)(=O)N(C)C[C@@H]2Oc3ccc(NS(=O)(=O)c4cn(C)cn4)cc3CC(=O)N([C@H](C)CO)C[C@H]2C)cc1 | inactive |
| C[C@H](CO)N1C[C@H](C)[C@H](CN(C)CC2CC2)OCCCC[C@H](C)Oc2ccc(NC(=O)CCC(F)(F)F)cc2C1=O | inactive |
| COCc1cn(CC[C@@H]2CC[C@H](NC(=O)CCN3CCCCC3)[C@@H](CO)O2)nn1 | inactive |
| Cc1cn2c3c(=O)n(C)c(=O)n(C)c3nc2n1CCN1CCOCC1 | inactive |

test system: S. aureus RN4220; assay: growth inhibition call (relative growth <= 0.2); settings: 50 µM

| SMILES | growth inhibition call |
| --- | --- |
| C[C@@H]1CN([C@H](C)CO)S(=O)(=O)c2ccc(C#Cc3cccnc3)cc2O[C@@H]1CN(C)C(=O)CN(C)C | inactive |
| O=C(NCC(F)(F)F)[C@@H]1c2ccccc2C(=O)N(Cc2cc(C(F)(F)F)cc(C(F)(F)F)c2)[C@H]1c1ccc(CO)cc1 | inactive |
| C[C@@H]1CN([C@@H](C)CO)C(=O)c2cccc(NC(=O)Nc3ccc(F)cc3)c2O[C@@H]1CN(C)Cc1ccc(Cl)c(Cl)c1 | inactive |
| C[C@H](CO)N1C[C@H](C)[C@@H](CN(C)S(=O)(=O)c2ccccc2F)Oc2ncc(C#Cc3ccncc3)cc2C1=O | inactive |
| C[C@@H]1CN([C@H](C)CO)C(=O)c2cc(NC(=O)Nc3cccc4ccccc34)ccc2O[C@H]1CN(C)Cc1ccncc1 | inactive |
| C[C@@H]1CCCCO[C@@H](CN(C)CC2CCCCC2)[C@H](C)CN([C@H](C)CO)C(=O)c2cc(NC(=O)Cc3ccccc3)ccc2O1 | inactive |
| Cc1noc(C)c1S(=O)(=O)Nc1ccc2c(c1)C(=O)N([C@H](C)CO)C[C@H](C)[C@@H](CN(C)Cc1ccc3c(c1)OCO3)O2 | inactive |
| CCCN(C)C[C@H]1Oc2cc(C#Cc3ccccc3OC)ccc2S(=O)(=O)N([C@@H](C)CO)C[C@H]1C | inactive |
| C[C@@H]1CN([C@H](C)CO)C(=O)c2cc(-c3cncnc3)cnc2O[C@H]1CN(C)C(=O)Nc1ccc2c(c1)OCO2 | inactive |
| C[C@@H]1CN([C@@H](C)CO)C(=O)c2cccc(NS(=O)(=O)c3ccccc3)c2O[C@H]1CN(C)Cc1ccncc1 | inactive |
| C[C@@H]1CN([C@H](C)CO)C(=O)c2cc(NS(=O)(=O)c3cn(C)cn3)ccc2O[C@@H](C)CCCCO[C@H]1CN(C)S(=O)(=O)c1cn(C)cn1 | inactive |
| CC(C)C(N)C(=O)OCCOCn1cnc2c(=O)[nH]c(N)nc21.Cl (centres undefined) | inactive |
| C[C@@H]1CCCCO[C@@H](CN(C)Cc2ccccc2)[C@H](C)CN([C@@H](C)CO)C(=O)c2cc(NS(=O)(=O)c3ccc(Cl)cc3)ccc2O1 | inactive |
| COc1ccc(CC2c3cc(OC)c(OC)cc3CC[N+]2(C)CCC(=O)OCCCCCOC(=O)CC[N+]2(C)CCc3cc(OC)c(OC)cc3C2Cc2ccc(OC)c(OC)c2)cc1OC.O=S(=O)([O-])c1ccccc1.O=S(=O)([O-])c1ccccc1 (centres undefined) | inactive |
| CN(CC=CC#CC(C)(C)C)Cc1cccc2ccccc12.Cl | inactive |
| C[C@@H]1CN([C@@H](C)CO)C(=O)c2cccc(NS(=O)(=O)c3ccccc3)c2O[C@H]1CN(C)S(=O)(=O)c1cccs1 | inactive |
| Cc1noc(C)c1NC(=O)Nc1cccc2c1O[C@@H](CN(C)Cc1ccc(C(=O)Nc3ccccc3N)cc1)[C@@H](C)CN([C@H](C)CO)C2=O | inactive |
